Experimental data as given in PubChem BioAssay AID1347417 (National Center for Advancing Translational Sciences (NCATS), 2020).
Hit rate of the full screen: of about 120,000 compounds, about 5,300 (4.4%) were called active. The inconclusive results got no clear call from the source; some entries with a clear call stand among them for comparison. Calls come from the whole dose curve; as a rule, active = well fitted inhibition curve with a large enough effect; inconclusive = small, poorly fitted or top-dose-only effect; inactive = no such curve, though single readings can be large or run the other way. Where the call is inconclusive, the potency comes from a doubtful curve fit.

Assay: qHTS Primary assay for Inhibitors of Plasmodium falciparum Dd2 growth in vitro; note: nearly all actives have a fitted effect of over 65% in size;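 for activity, negative = inhibition: plate controls were DMSO vehicle for no effect and reference drug for full effect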
Settings: P. falciparum Dd2 growth, SYBR Green, 72 h; activity, negative = inhibition: at 28.9 µM (top of the series) unless noted; series mostly up to 28.9 µM
In short: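 Infected erythrocytes (Dd2, 0.3% parasitemia, 2.5% hematocrit final) are added to compound in RPMI-1640/Albumax II medium, grown 72 h at 37C in low oxygen, then lysed with saponin/Triton-X containing SYBR Green and read by fluorescence.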
Potency is the fitted concentration of half-maximal effect; tags give direction and shape of the fitted curve.

Compound | Potency | activity, negative = inhibition
COc1ccc(C(C)NC(=O)C2CCN(c3cc(C(F)(F)F)ncn3)CC2)cc1 (configuration not stated) | inconclusive: 17.8 µM [inhibitor, single point] | –
COc1ccc2[nH]c(C(=O)N3C[C@@H](Oc4ccccc4)C[C@H]3C(=O)N3CCCC3)cc2c1 | inconclusive: 11.2 µM [inhibitor, partial curve, poor fit] | –
O=C(NC1CCCC1)N1CCCC(c2nn[nH]n2)C1 (configuration not stated) | inactive | –
Cc1ccn(CCC(=O)N2C[C@@H](C(=O)O)[C@H](c3ccccc3C)C2)n1 | inactive | –
CC(C)(C)OC(=O)N1CCC(c2c(C(=O)N3CCN(C(=O)c4ccco4)CC3)cnn2-c2cccc(F)c2)CC1 | inconclusive: 10 µM [inhibitor, single point] | –
Cc1ncc2c(c1CNS(=O)(=O)N(C)C)CCN(C(=O)c1cccc(N3CCCC3=O)c1)C2 | inconclusive: 11.2 µM [inhibitor, single point] | –
COc1cc(C(=O)N2CCN(c3cc(-c4ccc(Cl)cc4)[nH]n3)CC2)cc(OC)c1OC | inactive | –
O=C(c1ccccn1)N1CCN(C(=O)N2CC3CC(C2)[C@H]2CCCC(=O)N2C3)CC1 (some centres not stated) | inactive | –
Cc1c(S(=O)(=O)c2cccc(Cl)c2)nnn1-c1cccc(C(F)(F)F)c1 | inactive | –
N#Cc1ccc(CN2CC(CNC(=O)c3ccccc3)C3(C2)CN(c2ccccc2)C3)cc1 (configuration not stated) | inactive | –
CCc1ccc(NC(=O)COc2cccc(-c3nnc4n3CCCC4)c2)cc1 | active: 5.01 µM | –
O=C(c1n[nH]c2ccccc12)N1CCC(Cc2nc(-c3ccccc3)n[nH]2)CC1 | inconclusive: 1.41 µM [inhibitor, partial curve, poor fit] | –
Cc1ccc(Cc2nc3ccccc3nc2SCC(=O)Nc2ccc3c(c2)OCO3)cc1 | inconclusive: 8.91 µM [inhibitor, partial curve, poor fit] | –
CCn1ncc(C(=O)N[C@@H]2CN(c3ccccn3)C[C@H]2CN(C)C)c1C | inactive | –
CC(=O)Nc1ccc(C2(C(=O)NCc3cccc(C)c3)CCC2)cc1 | inactive | –
Cc1cccc(N2CCN(CCNC(=O)C3COc4ccccc4C3)CC2)c1C (configuration not stated) | inconclusive: 10 µM [inhibitor, single point] | –
O=C(NCCc1ccccc1)N1CCCC(c2noc(COc3ccccc3)n2)C1 (configuration not stated) | inconclusive: 7.94 µM [inhibitor, partial curve] | –
Cc1cccnc1CN1C[C@@H](F)[C@@H](OCc2nc3ccc(F)cc3[nH]2)C1 | inactive | –
COc1cc(C(=O)NCC(c2cccnc2)N2CCc3ccccc32)cc(OC)c1OC (configuration not stated) | inconclusive: 17.8 µM [inhibitor, single point] | –
O=c1c2c(n(Cc3ccccc3)n1-c1ccccc1)CN(Cc1ccc3c(c1)CCO3)CC2 | inconclusive: 1.26 µM [inhibitor, partial curve, poor fit] | –
CCCS(=O)(=O)N1C[C@@H](Oc2cccnc2)C[C@@H]1C(=O)N1CCOCC1 | inactive | –

Compound | Potency | activity, negative = inhibition
Cc1cccc(CN2C[C@]34C=C[C@H](O3)C(C(=O)N(C)Cc3nnc(C)o3)C4C2=O)c1 (some centres not stated) | inactive | –
CCn1nc(C)cc1C(=O)N1Cc2cnn(Cc3ccc(F)cc3)c2C1 | inconclusive: 0.158 µM [inhibitor, full curve, poor fit] | –
COc1ccc(CNC(=O)N2CCC3(CC2)CC(Cc2nc(C4CC4)no2)CCO3)cc1 (configuration not stated) | inactive | –
CN(C)CCN(C)[C@@H]1[C@H](O)[C@H](CO)O[C@@H]1CNC(=O)c1cccs1 | inactive | –
O=C(N[C@@H]1CN(Cc2ccc(F)cc2)C[C@H]1CO)c1ccccc1 | inconclusive: 8.91 µM [inhibitor, partial curve, poor fit] | –
COc1cc(SC)ccc1C(=O)N[C@H]1CCN2C(=O)N(c3ccc(F)c(Cl)c3)C(=O)[C@@H]2C1 | inactive | –
CCCNc1c(NC(=O)c2ccc(OCCC)cc2)c(=O)oc2ccccc12 | inconclusive: 2.82 µM [inhibitor, partial curve] | –
Cc1ccc(C(=O)N2CCCC3(C2)C(=NC2CCCC2)NC(=O)N3c2cc(F)cc(F)c2)cc1 (configuration not stated) | inconclusive: 7.94 µM [inhibitor, partial curve, poor fit] | –
CC(C)(C)c1ccc(C(=O)Nc2ccc(C(O)[C@H]3COCC(=O)N3Cc3ccccn3)cc2)cc1 (some centres not stated) | inconclusive: 0.708 µM [inhibitor, partial curve] | –
CCC(=O)N1CCC(Oc2ccc(C(=O)N3CCCCC3)cn2)C1 (configuration not stated) | inactive | –
NC(=O)Cn1ccc2cc(OCC3CCN(C(=O)CC4CC4)CC3)cnc21 | inactive | –
CN1C[C@@H]2CCCN3CCC[C@@H]([C@H]23)[C@H]1CCCC(=O)NCc1ccccc1 | inconclusive: 17.8 µM [inhibitor, single point] | –
Cc1ccc(NC(=O)Cn2cccc2-c2nc(-c3ccc(F)cc3)no2)c(C)c1 | inconclusive: 0.251 µM [inhibitor, full curve, poor fit] | –
CN(C)c1cc(N2CCCC(NC(=O)Cc3cccs3)C2)ncn1 (configuration not stated) | – | inactive: 36.1% [at 5.79 µM]
Cn1cnc(S(=O)(=O)N2CCCN(C(=O)C3CC3)C(c3ccccc3)CC(=O)NCC2)c1 (configuration not stated) | inactive | –
CCOc1ccc(OC(=O)c2cn(-c3ccc(C)cc3)c(=O)c3ccccc23)cc1 | inconclusive: 10 µM [inhibitor, single point] | –
Cc1ccc(CNC(=O)CCC[C@@H]2[C@H]3CCCN4CCC[C@@H](CN2Cc2ccccc2)[C@@H]34)o1 | active: 3.55 µM | –
CCCOc1cccc(C(=O)Nc2cccc(NC(=O)c3ccc(C(C)(C)C)cc3)c2)c1 | inconclusive: 3.55 µM [inhibitor, single point] | –
CN(C)c1ccc(C(CNC(=O)c2ccc(C(C)(C)C)cc2)N2CCOCC2)cc1 (configuration not stated) | inconclusive: 17.8 µM [inhibitor, single point] | –
COc1cccc(CN2CC[C@H]3C(=O)NCCCCCCN(Cc4ccncc4)[C@@H]3C2)c1OC | inconclusive: 0.708 µM [inhibitor, partial curve, poor fit] | –
CN(C)c1nc2c(c(=O)[nH]1)CCN(CCc1ccccc1)CC2 | – | inactive: -7.34% [at 5.79 µM]
